# According to the supplement of paper PMC3334620:
# Over roughly 33,000 sequences, “E-score (-0.5 to 0.5)” has its median near -0.041; the highest 2% begin near 0.37. Some of the results follow.
# Biological target: T1, Ecm22 (UniProt Q05958)
# T1 sequence: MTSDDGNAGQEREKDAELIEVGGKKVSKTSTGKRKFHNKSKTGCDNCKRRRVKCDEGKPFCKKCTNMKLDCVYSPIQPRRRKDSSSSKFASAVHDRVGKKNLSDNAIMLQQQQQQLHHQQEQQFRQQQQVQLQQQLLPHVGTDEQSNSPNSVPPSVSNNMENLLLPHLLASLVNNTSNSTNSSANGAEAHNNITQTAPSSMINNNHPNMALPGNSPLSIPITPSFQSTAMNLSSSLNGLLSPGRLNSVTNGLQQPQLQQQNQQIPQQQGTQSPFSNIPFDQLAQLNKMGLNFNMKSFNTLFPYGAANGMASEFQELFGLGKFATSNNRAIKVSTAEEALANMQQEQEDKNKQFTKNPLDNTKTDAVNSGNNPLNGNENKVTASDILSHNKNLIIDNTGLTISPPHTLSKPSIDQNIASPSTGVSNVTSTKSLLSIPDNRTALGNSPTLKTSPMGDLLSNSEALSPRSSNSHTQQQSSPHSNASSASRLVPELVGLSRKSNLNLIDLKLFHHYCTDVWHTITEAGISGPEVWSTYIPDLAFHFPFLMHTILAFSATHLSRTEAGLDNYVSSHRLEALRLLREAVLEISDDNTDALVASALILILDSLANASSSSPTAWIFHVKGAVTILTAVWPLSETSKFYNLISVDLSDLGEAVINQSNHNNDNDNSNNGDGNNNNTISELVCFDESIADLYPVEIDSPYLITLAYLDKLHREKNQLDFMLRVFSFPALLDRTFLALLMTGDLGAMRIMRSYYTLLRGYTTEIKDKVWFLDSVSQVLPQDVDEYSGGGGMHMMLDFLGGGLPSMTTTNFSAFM
# Test: PBM E-score (8-mer binding enrichment) (E-score (-0.5 to 0.5)); higher = stronger / more preferred TF binding; most listed sequences are background and not binding sites
# Conditions: protein concentration: 200 nM; construct: GST-full length
# Procedure, shortened: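 The E-score, a modified Wilcoxon-Mann-Whitney statistic, was computed by the Universal PBM Analysis Suite for every ungapped eight-base word pooled with its reverse complement. Scans behind it were normalised with masliner after bound GST-tagged yeast transcription factors were detected with fluorescent anti-GST. The proteins, at about 100-200 nM, had been applied to universal all-10-mer Agilent arrays made double-stranded by primer extension.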
row,Sequence,PBM E-score
1,ACGAAAAA,0.249
2,CCCCGCAG,-0.0795
3,ACGGCTAG,0.0605
4,AACCCATT,-0.074
5,CCTGATGC,-0.0632
6,GGTGACTA,0.0186
7,ACTGTATG,0.092
8,CGGCCAGA,-0.192
9,GGGATCCA,-0.126
10,CACGTCAC,-0.154
11,CGTGTAGA,0.243
12,TGCGAGCA,0.238
13,CAATATAA,0.0331
14,ATATAACG,0.107
15,CGTACGGC,0.385
16,AAGAGTCG,0.0683
17,AGGTGACG,-0.0182
18,ATACCCAG,-0.201
19,ATTGAACA,-0.0167
20,CCCGAGAA,0.0887
21,AAGGGTAA,-0.079
22,GATGGTCA,-0.213
23,CCGAACGC,0.0747
24,ACACGAGG,0.324
25,CCAGAGGA,-0.192

row,Sequence,PBM E-score
1,AAATCAGG,-0.0883
2,CCTCCGAG,0.00229
3,TGCAAGAA,-0.0877
4,GGATCGGA,0.159
5,GAATGGAA,0.0415
6,CTTAGATC,-0.0158
7,CTGAACAA,0.0971
8,CGAAATCG,0.111
9,ACAGCTGA,-0.0667
10,ACGTCGGA,0.138
11,AGAATTAT,-0.0094
12,CATGGACG,-0.227
13,CGCGCCGC,-0.0283
14,CGCTCCCG,0.222
15,CTGTGCCA,-0.185
16,ACCAACCC,-0.0808
17,AGTCGGGC,0.077
18,ACTGCTCC,-0.225
19,GGAGCTGA,-0.13
20,AACGCGTG,0.115
21,CTTAAAAA,-0.137
22,AGGTTCAG,-0.0601
23,CTTCCTCC,-0.11
24,AAGTCACC,-0.0698
25,CTAAGCTA,-0.0681

row,Sequence,PBM E-score
1,AGAAGGGG,-0.227
2,CATCCTTA,0.00699
3,CCGCCTCA,-0.29
4,CCTGCGCG,0.0218
5,CCAGGGAG,-0.195
6,ATTGACTA,0.18
7,CTCTTGGA,-0.229
8,GAAATCTC,0.129
9,GGCCGTCA,-0.208
10,ATTTGATG,-0.073
11,CCACCATA,-0.121
12,ACGCTCTG,-0.0531
13,GTCTCCCA,-0.227
14,ACATTCAC,-0.103
15,CGAAGATA,0.233
16,ACGTTAAC,0.0525
17,CTTCGTGA,0.209
18,ATGGGTGC,-0.0714
19,AGGAGTCC,-0.248
20,AAACACTC,0.0184
21,AGGATCTC,-0.0803
22,CAACCGAC,0.241
23,CTGCACAA,-0.214
24,AGCACACA,-0.246
25,TCTGCACA,-0.184

row,Sequence,PBM E-score
1,GACTGTTA,-0.223
2,CTGTTCCA,-0.186
3,AAGCAGGC,-0.0779
4,ATCATCCG,0.175
5,TCGGCACA,-0.0471
6,ACCCGGCT,-0.0626
7,GACGGCCC,-0.108
8,CCGAGTTA,0.0641
9,ACCATGAC,-0.154
10,AAGTCTAG,-0.178
11,ACACAGTA,-0.0309
12,ATTTGACC,-0.00361
13,GCACCTGA,-0.27
14,GCAAGGAC,-0.0871
15,AAGACAAC,0.0597
16,GCGGAAAA,0.0523
17,AATCTAAA,-0.093
18,CTGATATC,-0.00762
19,AGATGAGA,-0.0713
20,ACCCTGAT,-0.24
21,AACGATGG,0.374
22,ACAGAACT,-0.0778
23,CAGTAGTC,-0.0281
24,GTCGAACA,0.095
25,ACTTTGAA,0.0449

row,Sequence,PBM E-score
1,CACCGCTC,-0.0206
2,ATCACCAC,0.132
3,ATAAGGGC,-0.128
4,AGGCAAAC,-0.0579
5,ACTTAGCG,0.142
6,GTGCACGA,0.0323
7,GGAGTGAC,-0.0351
8,CAGAGAGG,-0.324
9,CCTTCTCG,-0.103
10,ATGATATG,0.149
11,CAGACGCC,-0.107
12,CCGCCCAA,-0.189
13,AGGCGAAG,-0.173
14,GCGTTCCA,0.141
15,ATTTGCAG,-0.137
16,CAGAGGAG,-0.104
17,CAACGCTC,0.023
18,CCTTGGCC,-0.34
19,GCATATTA,0.101
20,GCGTTTCC,0.0822
21,AGTCGTAG,0.304
22,GAGTTCTA,-0.0413
23,ATGATTCG,0.179
24,CTACCTTA,-0.15
25,TACAGGAA,0.0905

row,Sequence,PBM E-score
1,GTACGTCA,0.178
2,AGCGTGAT,0.0673
3,CCTTTCAC,0.00297
4,ATTGGCCG,-0.204
5,GCGTTACA,-0.00306
6,ATCTGTGG,-0.273
7,GCAGCAGA,-0.0242
8,GTTTTCTA,0.0995
9,ATAATCCG,0.0655
10,AGTACTTC,0.0665
11,GCCCTGTA,-0.13
12,GAAAAAGA,0.019
13,GCAAAAAA,0.00736
14,ATTCCGGA,-0.051
15,TATAATGA,0.211
16,CAGGAATC,-0.0546
17,CGCACCAG,0.216
18,ATTAAGTG,0.05
19,GGTTCAAA,-0.0138
20,AGAACCAG,-0.11
21,CGTATCCC,0.32
22,GCGCGGGA,0.0953
23,GCGCCACC,-0.161
24,ATTTCATC,-0.179
25,GCCCATCC,-0.00151

row,Sequence,PBM E-score
1,AATCGGCT,0.0173
2,AGTATTCG,0.193
3,CAGGGCAG,-0.104
4,CTTATTAA,0.0405
5,CAAAGTTC,0.0176
6,CGGCGGCC,0.0156
7,TACTAACA,-0.0338
8,CATTGTGC,-0.197
9,CGTGCGGA,-0.117
10,CAGGAGAA,-0.193
11,AATCCGTG,0.0228
12,CACAGATG,-0.262
13,GGTACACA,-0.126
14,CTAGGTTC,-0.0955
15,GAACCGGC,-0.0167
16,CCTTATCA,-0.119
17,CCTGTGAG,-0.207
18,ACACCGCG,0.148
19,ACATTCTC,0.022
20,ACCCAGAC,0.0385
21,TCTTCCAA,-0.177
22,TAGCCACA,-0.0542
